Laboratory results as given in article PMC4336329 (PLoS ONE, 2015).
The campaign covered roughly 310,000 compounds. About 2,200 (0.71%) showed an effect of 50% or more. The effect is printed as a negative number. Some of the results follow.

Each compound was assayed against human ether-à-go-go-related gene (hERG) potassium channel (human, UniProt Q12809) (assay: primary screen, population patch clamp on CHO cells stably expressing hERG).
human ether-à-go-go-related gene (hERG) potassium channel, sequence (Q12809 whole entry, looked up): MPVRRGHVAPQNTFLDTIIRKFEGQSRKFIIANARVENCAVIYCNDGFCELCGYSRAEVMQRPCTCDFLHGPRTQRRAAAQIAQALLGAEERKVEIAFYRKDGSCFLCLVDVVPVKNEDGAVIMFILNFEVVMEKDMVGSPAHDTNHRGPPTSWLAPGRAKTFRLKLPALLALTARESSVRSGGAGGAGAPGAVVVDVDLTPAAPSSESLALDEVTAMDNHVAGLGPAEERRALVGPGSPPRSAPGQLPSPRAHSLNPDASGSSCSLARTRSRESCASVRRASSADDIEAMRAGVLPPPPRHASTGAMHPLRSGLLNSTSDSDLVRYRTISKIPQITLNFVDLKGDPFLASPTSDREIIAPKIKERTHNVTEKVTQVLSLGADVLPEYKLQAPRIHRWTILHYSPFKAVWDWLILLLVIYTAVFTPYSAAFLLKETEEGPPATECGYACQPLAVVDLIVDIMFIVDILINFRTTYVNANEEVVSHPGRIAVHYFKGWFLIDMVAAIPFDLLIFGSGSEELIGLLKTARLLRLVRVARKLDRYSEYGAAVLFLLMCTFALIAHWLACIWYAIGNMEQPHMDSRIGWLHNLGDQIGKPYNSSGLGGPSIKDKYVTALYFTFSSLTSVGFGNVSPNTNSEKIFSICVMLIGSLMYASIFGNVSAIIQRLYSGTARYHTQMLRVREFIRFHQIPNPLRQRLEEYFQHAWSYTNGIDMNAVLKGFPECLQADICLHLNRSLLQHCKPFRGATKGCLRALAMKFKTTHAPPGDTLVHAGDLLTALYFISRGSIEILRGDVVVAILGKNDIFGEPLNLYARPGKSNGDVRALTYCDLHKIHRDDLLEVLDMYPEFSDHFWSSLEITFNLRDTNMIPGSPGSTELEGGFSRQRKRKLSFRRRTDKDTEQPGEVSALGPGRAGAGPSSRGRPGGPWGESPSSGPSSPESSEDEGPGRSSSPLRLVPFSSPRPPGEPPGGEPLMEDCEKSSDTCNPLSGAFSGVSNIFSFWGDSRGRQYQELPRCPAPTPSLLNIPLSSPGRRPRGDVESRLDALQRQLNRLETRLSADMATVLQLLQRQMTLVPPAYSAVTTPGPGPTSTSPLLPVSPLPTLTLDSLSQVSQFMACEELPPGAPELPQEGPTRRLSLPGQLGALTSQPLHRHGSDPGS

| Structure (SMILES) | hERG current change (%, negative = inhibition) at 1uM [%] |
| --- | --- |
| COc1ccc(CNC(=O)c2cc(-c3cc(C)ccc3O)n[nH]2)cc1 | 8.57 |
| COc1ccc(CCNC(=O)C2CC3Cn4c(nc5ccccc54)C3N2c2ccccc2)cc1 (stereo not drawn) | 11.5 |
| Cl.N=c1sccn1CC(=O)Nc1ccc([N+](=O)[O-])cc1Cl | 1.32 |
| Cc1ccc(S(=O)(=O)N2CCOCC2)cc1NC(=O)c1cc(-c2ccccn2)nc2ccccc12 | 8.07 |
| Cc1cccc(-c2cc3nc4c(c(N5CCOCC5)n3n2)CCCC4)c1 | 7.15 |
| CCC(CC)C(=O)Nc1cc(NC(=O)C(CC)CC)cc(C(=O)O)c1 | 16.9 |
| O=C(Nc1cccc(Cl)c1)Nn1cnnc1 | 10.5 |
| CCOC(=O)C(C)Oc1c(C(=O)OC)sc2ncccc12 (stereo not drawn) | 9.1 |
| O=C1C=C(Nc2ccc(Cl)cc2)CC(c2ccccc2)C1 (stereo not drawn) | -2.37 |
| Cc1cc(C)c(C(=O)CSc2n[nH]c(=O)n2C2CC2)cc1C | 5.14 |
| CC(=O)c1cccc(S(=O)(=O)NC2CCCCCC2)c1 | 2.99 |
| O=C(COC(=O)CCc1nc2ccccc2c(=O)[nH]1)NC1CCS(=O)(=O)C1 (stereo not drawn) | 5.63 |
| CCc1nnc(NC(=O)c2cc(-c3ccco3)nc3ccccc23)s1 | 10.4 |
| CC(=O)c1nn(-c2ccc(Br)cc2)cc1C(=O)c1ccco1 | 2.58 |
| Cc1ccc(OCCOC(=O)c2cc(S(=O)(=O)N3CCCCC3)ccc2N2CCOCC2)cc1 | 5.84 |
| CCSc1nnc([C@@H]2CCCN2C(=O)OC(C)(C)C)o1 | 11.9 |
| COc1ccc(/C=C2\SC(=O)N(CC(=O)NNC(=O)c3ccccc3O)C2=O)cc1 | 13.4 |
| CC(=O)Nc1ccc(S(=O)(=O)N2CCCC2)cc1 | 10.8 |
| CC(C)(C)C1CCc2c(sc(NC(=O)c3ccncc3)c2C(N)=O)C1 (stereo not drawn) | 11.9 |
| Cc1ccc(-c2nc(C#N)c(N3CCC(C)CC3)o2)cc1 | 13.1 |
| O=C(COc1ccccc1)Nc1nnc(-c2ccc3c(c2)CCCC3)o1 | 13.8 |
| O=C(NCc1ccncc1)C(=O)N/N=C/c1ccccn1 | 11.5 |
| CC1(C)N(OCc2ccccc2)C(=O)C(=O)N(OCc2ccccc2)C1(C)C | -1.89 |

| Structure (SMILES) | hERG current change (%, negative = inhibition) at 1uM [%] |
| --- | --- |
| Cc1cnc(SCc2cnc(C)nc2N)nc1 | 7.53 |
| CC(C)C(NC(=O)OCc1ccccc1)C(=O)OCC(=O)NCc1ccco1 (stereo not drawn) | 19.6 |
| CCOC(=O)CNC(=O)/C=C/c1ccc2c(c1)OCO2 | 14.3 |
| Cc1nnc(-c2ccc(Oc3ccc(Br)cc3)c([N+](=O)[O-])c2)o1 | 10.1 |
| Oc1ccccc1-c1nnc(-c2ccc(C(F)(F)F)cc2)o1 | 11.6 |
| O=C(N/N=C/c1cc2c(cc1Cl)OCO2)c1cccc(Br)c1 | 10.5 |
| O=C(CSc1nc2ccccc2c(=O)n1CCCO)NCc1ccccc1 | -4.26 |
| Cc1ccc(OCC(O)CNC(C)c2ccccc2)cc1C.Cl (stereo not drawn) | 10.4 |
| CC1(C)Cc2c(sc3nnn(Cc4ccc(Cl)cc4)c(=O)c23)CO1 | 18.7 |
| Cc1cc(C)cc(OCCCn2ccnc2)c1 | 21 |
| CCOc1ccc2[nH]c3c(NCC(C)C)ncnc3c2c1 | 7.21 |
| CCOC(=O)c1[nH]c2ccccc2c1NC(=S)Nc1ccccc1C | 2.56 |
| O=C(c1ccc(F)c(S(=O)(=O)N2CCOCC2)c1)N(c1ccccc1)c1ccccn1 | 4.63 |
| Cc1ccc(-c2nn(C(C)(C)C)c3ncnc(NS(=O)(=O)c4ccc([N+](=O)[O-])cc4)c23)cc1 | -2.06 |
| COc1ccccc1-n1nnnc1SC(C)C(=O)NC1CCCC1 (stereo not drawn) | 12.9 |
| CCOc1ccc2nc(SCC(=O)Nc3ccc(S(=O)(=O)N4CCCC4)cc3)c(C)cc2c1 | 4.81 |
| CC1(C)Cc2ccccc2-c2nc(-c3ccccc3)oc(=O)c21 | -1.19 |
| CC(C)c1cccc(C(C)C)c1OCCn1ccnc1 | -0.22 |
| CCOc1nnc(C)c2c(C)n(-c3ccc(Cl)cc3)nc12 | -2.61 |
| CN(C)CCCn1c(=O)n(Cc2ccco2)c(=O)c2c3c(sc21)CCCCC3 | -40.7 |
| Cc1cccc(-c2nc3ccccc3c(=O)n2NC(=O)c2ccc([N+](=O)[O-])c(C)c2)c1 | -1.13 |
| CCC(NC(=O)COc1cc2c(c3oc(=O)c(C)c(C)c13)CCC(C)(C)O2)C(=O)O (stereo not drawn) | 0.462 |
| Cc1ccc2nc3c(cc(C(=O)NCCc4ccccc4)c(=N)n3CCN3CCOCC3)c(=O)n2c1 | -82.9 |

| Structure (SMILES) | hERG current change (%, negative = inhibition) at 1uM [%] |
| --- | --- |
| CC(C)[C@H](NC(=O)c1ccco1)C(=O)OCC(=O)c1ccc2c(c1)NC(=O)CO2 | 13.5 |
| NS(=O)(=O)c1ccc(NC(=O)C2(c3ccccc3)CCCC2)cc1 | 13.7 |
| Cc1ccc(NC(=O)CSCC(=O)O)c(C)c1 | 23.5 |
| COC(=O)c1ccc(NC(=O)CSC2=NCCN2)cc1.Cl | 10.2 |
| COc1ccc(OC)c(CCNC(=O)c2sc3nc4n(c(=O)c3c2C)CCC4)c1 | 22.4 |
| CCOc1ccc(CN2CCNC(=O)C2CC(=O)OC)cc1 (stereo not drawn) | 31 |
| Cc1cc(C)c(C#N)c(Oc2ccc(O)cc2)n1 | 10.9 |
| N#Cc1cccc(-n2nnnc2-c2ccc3c(c2)OCO3)c1 | 11.5 |
| CN(CC(=O)Nc1ccccc1Cl)C(=O)COC(=O)C1CCN(c2ccc(C(F)(F)F)cn2)CC1 | 4.9 |
| CCOc1ccccc1N1CCN(C(=O)c2cc3cc(OC)ccc3[nH]2)CC1 | 12.8 |
| O=C(/C=C/c1ccccc1Cl)NCc1ccccc1 | 11.7 |
| CC(C)=CCN1CCN(Cc2ccc(C#CC(C)(C)O)s2)CC1CCO (stereo not drawn) | 8.79 |
| O=C(c1noc2c1CCCC2)N1CCOCC1 | 18 |
| CCCCOC(=O)c1cc(Cl)c(O)c(OC)c1 | 10.5 |
| N#CC1=C(N)Oc2cc(N)ccc2C1c1ccc(F)cc1F (stereo not drawn) | -4.19 |
| O=C(Nc1ccc(Cl)c([N+](=O)[O-])c1)C(NCCCO)c1ccccc1 (stereo not drawn) | 0.919 |
| Cc1ccc(CN2CC(C(=O)Nc3cccc(C)n3)CC2=O)cc1 (stereo not drawn) | -4.52 |
| O=C(CN1CCOCC1)Nc1ccc(Cl)cn1 | 9.56 |
| CC(C)c1ccc(OCC(=O)N(Cc2ccco2)C2CCS(=O)(=O)C2)cc1 (stereo not drawn) | -28.3 |
| CC(C)OP(C)(=O)CN1CCN(CP(C)(=O)OC(C)C)CC1 (stereo not drawn) | 10.9 |
| O=C(Nc1ccc(C(=O)N2CCCC2)cc1)Nc1ccc(Cl)cc1Cl | 10.4 |
| CCOC(=O)/C=c1\s/c(=C\c2ccc(C(F)(F)F)cc2)c(=O)n1CC(=O)NCc1ccco1 | 8.21 |
| C/C(=N\NC(=O)c1ccco1)c1cc2ccccc2o1 | 4.19 |

| Structure (SMILES) | hERG current change (%, negative = inhibition) at 1uM [%] |
| --- | --- |
| O=C(CSc1nncs1)NC1CCCCCCC1 | 11.4 |
| Cc1ccccc1C(=O)N1CCC(C(=O)Oc2ccc(C#N)cc2)CC1 | 1.54 |
| COC(=O)c1ccc(N(C(=O)CNC(=O)c2ccco2)C(C(=O)NC2CCCC2)c2ccco2)cc1 (stereo not drawn) | 11.9 |
| Cl.Clc1ccc(OCCOCCN2CCc3ccccc3C2)c(Cl)c1 | 0.708 |
| O=[N+]([O-])c1ccc(/C([O-])=C(/C(=S)NCc2ccco2)[n+]2ccccc2)cc1 | 2.63 |
| CC(=O)N(C)c1ccc(NC(=O)COc2ccc(Br)cc2C)cc1 | 6.84 |
| CC(=O)Nc1c(Cl)n(C(C)=O)c2ccccc12 | 11.2 |
| COc1cc(OC)nc(NC(=S)NC(=O)c2ccccc2)n1 | 14.3 |
| Cc1cccc(C)c1NC(=O)CCS(=O)(=O)c1cccc2nonc12 | 13.6 |
| Cc1ccc(-n2nc(C(=O)N/N=C/c3cccc(C(F)(F)F)c3)c3ccccc3c2=O)cc1C | 7.44 |
| Fc1ccc(Cn2nnnc2C(c2cccs2)N2CCCCCC2)cc1 (stereo not drawn) | 0.84 |
| O=S(=O)(Nc1ccc2nc(N3CCOCC3)sc2c1)c1ccc(Cl)cc1 | 0.696 |
| CC1=C(C(=O)Nc2cc(C)ccn2)C(c2cnn(C)c2)C2=C(CC(c3ccccc3)CC2=O)N1 (stereo not drawn) | 2.84 |
| O=C(CCCCCn1c(=S)[nH]c2ccc(N3CCOCC3)cc2c1=O)NCc1ccccc1Cl | 7.56 |
| Cc1nc2cc(CO)ccc2n1C | 6.74 |
| [O-][n+]1onc2c1CCc1nnc(-c3ccccc3)cc1-2 | 8.5 |
| Cc1nc(NC(=O)/C=C/c2ccccc2)sc1C(=O)N(C)C | 10 |
| CCc1c(C)nc(SCC(=O)Nc2cccc(Br)c2)[nH]c1=O | 18.2 |
| O=C(Nc1ccccc1)c1ccc2nc(-c3ccco3)c(-c3ccco3)nc2c1 | -0.0511 |
| CCCCOc1ccc(C(=O)NCC(=O)NCC(c2ccco2)N2CCCCC2)cc1 (stereo not drawn) | 6.21 |
| COC(=O)c1ccc(N(CC(=O)NC2CCCCC2)C(=O)CNC(=O)c2ccco2)cc1 | 6.58 |
